Data published in ChEMBL document CHEMBL4888484, “Replenishing the malaria drug discovery pipeline: Screening and hit evaluation of the MMV Hit Generation Library 1 (HGL1) against asexual blood stage Plasmodium falciparum ,using a nano luciferase reporter read-out” (2022).
About 540 (0.36%) of roughly 150,000 compounds showed an effect of 50% or more. Some of the results follow.

System: Plasmodium falciparum
Test: Primary screen in NF54 nanoGlo assay, in single point, at 2uM, 72h; a lower Z score goes with more inhibition
Type: functional, Erythrocyte
Conditions: timepoint 72 hour

Row | SMILES | % Inhibition | Z score
1 | CC(=O)NC(C)(C)C[C@H](C)NCc1cnc(C)c(C)c1 | -11% | 1.19
2 | CCOc1ccccc1CN1CC[C@H](c2nc(C)n[nH]2)[C@H](NC(=O)C2CCOCC2)C1 | -6% | 0.83
3 | Cc1ccc(-c2nc(-c3ccc(S(=O)(=O)N4CCCCC4)cc3)no2)cc1C | -2% | 0.39
4 | COc1nc(NCC2CCC(O)C2)nc(N2CCCCCC2)n1 (stereo unspecified) | -9% | 1.4
5 | CC(C)[C@H](CNC(=O)N1CCC(OCc2cccnc2)CC1)N1CCCC1 | -5% | 0.8
6 | COC[C@H](Nc1cc(C(C)C)nc(C)n1)c1ccccn1 | -13% | 1.59
7 | O=C(NC1C2C3CCC(C3)C12)N1CCN(C(=O)c2ccccc2)CC1 (stereo unspecified) | -5% | 0.63
8 | O=C(NC[C@]1(O)CCCc2occc21)c1cccc(F)c1 | 19% | -2.42
9 | COc1cc(-c2noc(C(C)(C)C)n2)ccc1OCc1ccccc1F | -8% | 1.3
10 | CCc1nc(C)sc1CN1CCC[C@H](C(=O)Cc2ccccc2)C1 | -10% | 1.51
11 | CC(C)(C)OC(=O)NC1CCCC(C(=O)N2CCC3(CCC3)C2)C1 (stereo unspecified) | 10% | -1.6
12 | CCN(Cc1cc(C)on1)C1CCCC1 | 5% | -0.84
13 | Cc1ccc(-c2ccnc(-n3ncc(C(=O)NCCN4CCOCC4)c3C3CC3)n2)o1 | -15% | 2.06
14 | Cc1noc(C)c1N(C)S(=O)(=O)c1ccc(F)c2ncccc12 | -5% | 1.14
15 | C=CCOCC(O)CN(Cc1c(-c2ccccc2)noc1N1CCCCC1C)CC1CCCO1 (stereo unspecified) | 30% | -0.88
16 | CC(C)CN1CC(=O)N(Cc2cc[nH]n2)C1=O | -2% | 0.19
17 | O=C(OCc1ccccc1)N1CCC[C@@](O)(CN2CCOCC2)C1 | -4% | 0.45
18 | CC1CN(C(=O)c2cn(C3CCS(=O)(=O)C3)nc2C(C)C)CC(C)N1 (stereo unspecified) | 3% | -0.46
19 | O=C(NCCCc1nccs1)[C@H]1CC12CCCCC2 | 9% | -1.65
20 | COCCOc1cc2cc(c1)C(=O)NCCNC(=O)N[C@H]1CCN(Cc3nc(C(C)C)cs3)C[C@@H]1OCc1cccc(c1)O2 | 17% | -3.22
21 | Cc1ccc(-c2nc(CC(=O)NC[C@H](C)CN3CCCC3)cs2)o1 | -15% | 2.13
22 | Cc1ccccc1OCC(=O)N(CCn1ccc(C(F)(F)F)n1)C1CCCC1 | -6% | 1.21
23 | Cc1c(C(=O)N2CC(C)CC(C)C2)c(C(F)(F)F)nn1C1CCN(C)CC1 (stereo unspecified) | -10% | 1.27
24 | CC(C)CC(C)OC(=O)CC(C)NC(=O)C1CCCC1 (stereo unspecified) | -14% | 1.38
25 | CCn1cc(C#N)c(=O)n(CC(=O)N(Cc2ccccc2)[C@@H](C)C2CC2)c1=O | -1% | 0.24
26 | O=C(c1nnn2c1CO[C@H](c1ccccc1)C2)N1CCN(c2ccccn2)CC1 | -11% | 1.54
27 | Cc1nn(C)c2c(=O)n(CC(=O)NCc3ccccc3C(F)(F)F)ccc12 | -20% | 1.94

Row | SMILES | % Inhibition | Z score
28 | COc1ccc2cc1Oc1cccc(c1)CO[C@H]1CCN(C(=O)CN3CCN(C)C3=O)C[C@H]1NC(=O)CC2 | -12% | 2.21
29 | COC(=O)c1cnc2nc(-c3ccccc3)nn2c1-c1cnc(N2CCCCC2)nc1C | 6% | -0.78
30 | Cn1ccnc1-c1nccn1CCCc1cccnc1 | -6% | 0.8
31 | Cc1noc(C)c1CNC(=O)c1[nH]nc2c1CCC2 | -9% | 0.96
32 | C[C@@H]1CN(C[C@@H]2CN(c3ncnc4[nH]ccc34)C[C@@H]2CO)C[C@H](C)O1 | -3% | 0.45
33 | Cc1cnn(CCC(=O)N(C)Cc2c[nH]nc2C)c1 | -11% | 1.64
34 | CC(C)(C)[C@@H](O)CNc1ccc(Cl)cc1C#N | 7% | -0.87
35 | CCCn1ncc(C(=O)NCCc2nc(C3CC3)no2)c1C | -9% | 1.55
36 | Cc1ncc(C)c(NCC2(CO)CCCC2)n1 | 2% | -0.31
37 | CCCCOc1ccc(Br)cc1C(=O)NC | -11% | 1.02
38 | O=S(=O)(c1ccc(-c2noc(/C=C/c3ccccc3Cl)n2)cc1)N1CCCCC1 | 2% | -0.4
39 | Cc1cc(Cn2cc(F)ccc2=O)no1 | -2% | 0.28
40 | CN(C(=O)c1cccc2c1OCC2(C)C)[C@H]1CCCc2c1cnn2C | -5% | 0.64
41 | CN1CCN(C[C@@H]2CN(C(=O)c3cc4c(Cl)cccc4[nH]3)C[C@@H]2CO)CC1 | -3% | 0.6
42 | O=C(Nc1ccc(N2CCOCC2)cc1)C1CCN(S(=O)(=O)c2ccc(-c3ccn[nH]3)o2)CC1 | -18% | 2.9
43 | O=C(NCc1ccc(C2CC2)nc1)Nc1cccs1 | 21% | -2.65
44 | Cc1nc(-c2ccccc2NS(=O)(=O)C2CC2)cs1 | -9% | 0.99
45 | Cc1ncc(C(=O)N2C[C@H]3CC[C@@H](C2)N(Cc2ccccn2)C3)c(C)n1 | -6% | 0.75
46 | OC[C@@]1(CCOc2ccccc2)CCCN(c2nnnn2-c2ccccc2)C1 | 14% | -1.84
47 | COc1ccc(C(CO)CNC2[C@@H]3CCC[C@@H]3C2(C)C)cc1 (stereo partly specified) | 0% | -0.02
48 | Cc1cccc(CNC(=O)c2cc(Cn3c(C)nc4ccccc43)on2)n1 | -10% | 1.1
49 | O=C(Nc1nc(-c2ccc(Cl)cc2)cs1)[C@H]1CCS(=O)(=O)C1 | 0% | 0.06
50 | CC(NC(=O)N1CCCC(C2CCCCO2)C1)c1ncc(Br)cn1 (stereo unspecified) | -11% | 2.37
51 | CCn1ccnc1[C@H](CCc1ccccc1)OC(=O)c1cncn1C | -3% | 0.35
52 | Cc1ccc(CNc2ccncc2F)o1 | 1% | -0.08
53 | CCCCN(C)Cc1ccc(OC[C@@H](O)CN(CC)CC)c(OC)c1 | -2% | 0.29
